Experimental data taken from the antibiotic and cytotoxicity screens of Wong et al. (2023).
The other results are listed elsewhere or left out.

test system: HSkMC (human skeletal muscle cells); experiment: cytotoxicity call (relative viability < 0.9); conditions: 10 µM

Row | Structure (SMILES) | cytotoxicity call
1 | C[C@@H]1CCCCO[C@H](CN(C)C(=O)Nc2ccc(C(F)(F)F)cc2)[C@@H](C)CN([C@H](C)CO)C(=O)c2cc(NS(=O)(=O)c3ccc(Cl)cc3)ccc2O1 | inactive
2 | NC(N)=Nc1nc(CSCCC(N)=NS(N)(=O)=O)cs1 | inactive
3 | O=C(C1=C(O)C(=O)N(c2nccs2)[C@H]1c1cccc(Oc2ccccc2)c1)c1ccc2c(c1)OCCO2 | inactive
4 | Cc1c(-c2cnccn2)ssc1=S | inactive
5 | CO[C@@H]1CN(C)C(=O)c2ccc(NS(C)(=O)=O)cc2OC[C@H](C)N(S(C)(=O)=O)C[C@H]1C | inactive
6 | CO[C@H]1CN(C(=O)c2ccnnc2)[C@H]2COC[C@@H]12 | inactive
7 | CC(C)NC(=O)Nc1ccc2c(c1)C(=O)N([C@@H](C)CO)C[C@@H](C)[C@H](CN(C)Cc1ccc3c(c1)OCO3)O2 | inactive
8 | C[C@H]1CCCCO[C@H](CN(C)Cc2ccc3c(c2)OCO3)[C@@H](C)CN([C@@H](C)CO)C(=O)c2cc(NS(=O)(=O)c3ccc(F)cc3)ccc2O1 | inactive
9 | N[C@H](C(=O)O)c1cc(O)cc(O)c1 | inactive
10 | Cc1cccc(NC(=O)CN2C(=O)CNC2=O)c1 | inactive
11 | O=C(C[C@H]1CC[C@H](NS(=O)(=O)c2ccc(F)cc2)[C@@H](CO)O1)NCc1ccc(Cl)c(Cl)c1 | inactive
12 | O=C(C[C@H]1CC[C@H]2[C@@H](COC[C@@H](O)CN2S(=O)(=O)c2ccc(Cl)cc2)O1)N[C@H]1CCN(Cc2ccccc2)C1 | inactive
13 | O=C(Cc1ccccc1)NCCN1CCOCC1 | inactive
14 | O=C(C[C@H]1CC[C@H](NS(=O)(=O)c2ccccc2F)[C@H](CO)O1)NCCCN1CCOCC1 | inactive
15 | CC(C)CC#Cc1ccc2c(c1)O[C@H](CN(C)C(=O)c1ccccn1)[C@H](C)CN([C@@H](C)CO)S2(=O)=O | inactive
16 | CC1(C)CC(=O)c2c(C(F)(F)F)nn(-c3ccc(C(N)=O)c(N[C@H]4CC[C@H](OC(=O)CN)CC4)c3)c2C1 | active
17 | CON=C(C(=O)NC1C(=O)N2C(C(=O)[O-])=C(COC(N)=O)CSC12)c1ccco1.[Na+] (centres undefined) | inactive
18 | O=C(O)CCCCCCC(=O)Nc1ccc([C@H]2O[C@@H](CSc3nc(-c4ccccc4)c(-c4ccccc4)o3)C[C@@H](c3ccc(CO)cc3)O2)cc1 | inactive
19 | CCCN(C)C[C@H]1OCCCC[C@H](C)Oc2ccc(NC(=O)C3CCCCC3)cc2C(=O)N([C@H](C)CO)C[C@H]1C | inactive
20 | CC(C)NC(=O)Nc1ccc2c(c1)C(=O)N([C@@H](C)CO)C[C@H](C)[C@H](CN(C)C(=O)Nc1ccccc1)OCCCC[C@H](C)O2 | inactive

Row | Structure (SMILES) | cytotoxicity call
21 | C[C@@H]1CN([C@@H](C)CO)C(=O)Cc2cc(NC(=O)CCN3CCOCC3)ccc2O[C@@H]1CN(C)S(=O)(=O)c1cn(C)cn1 | inactive
22 | CC(C)NC(=O)N(C)C[C@@H]1Oc2ccc(NS(=O)(=O)c3ccccc3)cc2CC(=O)N([C@@H](C)CO)C[C@@H]1C | inactive
23 | C[C@H]1CCCCO[C@@H](CN(C)S(=O)(=O)c2ccccc2)[C@@H](C)CN([C@@H](C)CO)C(=O)c2cc(NS(C)(=O)=O)ccc2O1 | inactive
24 | COc1cccc(S(=O)(=O)N2C[C@H](O)COC[C@@H]3O[C@H](CC(=O)N4CCOCC4)CC[C@H]32)c1 | inactive
25 | C[C@@H]1CN([C@H](C)CO)C(=O)Cc2cc(NC(=O)CCCCCC(=O)Nc3ccccc3N)ccc2O[C@@H]1CN(C)Cc1ccc(C(F)(F)F)cc1 | active
26 | Cc1noc(C)c1NC(=O)N(C)C[C@H]1Oc2ccc(NS(=O)(=O)c3c(C)noc3C)cc2CC(=O)N([C@@H](C)CO)C[C@@H]1C | inactive
27 | C[C@H](CO)N1C[C@H](C)[C@@H](CN(C)S(=O)(=O)c2cccs2)OCCCC[C@H](C)Oc2ccc(NC(=O)Nc3cccc4ccccc34)cc2C1=O | inactive
28 | C[C@@H]1CN([C@H](C)CO)C(=O)Cc2cc(NC(=O)Nc3cccc4ccccc34)ccc2O[C@H]1CN(C)S(=O)(=O)c1ccc(Cl)cc1 | inactive
29 | Cc1noc(C)c1NC(=O)N(C)C[C@@H]1Oc2c(NC(=O)C3CCOCC3)cccc2C(=O)N([C@@H](C)CO)C[C@H]1C | inactive
30 | CCn1c2c(c3cc(C4CCCCC4)ccc31)CCCC2=O | inactive
31 | COc1cccc(NC(=O)N[C@H]2C=C[C@H](CC(=O)N3CCOCC3)O[C@H]2CO)c1 | inactive
32 | CC(C)NC(=O)N(C)C[C@@H]1Oc2ccc(NC(=O)CCC(F)(F)F)cc2CC(=O)N([C@@H](C)CO)C[C@@H]1C | inactive
33 | O=C(N[C@@H]1CC[C@H](CC(=O)N2CCOCC2)O[C@@H]1CO)c1ccccn1 | inactive
34 | COc1ccc(S(=O)(=O)N(C)C[C@H]2Oc3c(cccc3N(C)C)C(=O)N([C@@H](C)CO)C[C@@H]2C)cc1 | inactive
35 | COc1ccc(S(=O)(=O)Nc2cccc3c2O[C@@H](CN(C)C(=O)Nc2c(C)noc2C)[C@H](C)CN([C@H](C)CO)C3=O)cc1 | inactive
36 | NC(=O)c1nnc2ccc(Cl)cc2c1N | inactive
37 | CCOC(=O)N(C)C[C@@H]1OCc2cn(nn2)CCCC(=O)N([C@H](C)CO)C[C@@H]1C | inactive
38 | C[C@H](CO)N1C[C@H](C)[C@@H](CN(C)C(=O)Nc2ccc(C(F)(F)F)cc2)Oc2ccc(NC(=O)Cn3cnnn3)cc2C1=O | inactive
39 | O=C(C[C@@H]1C[C@@H]2c3cc(NC(=O)Cc4ccncc4)ccc3O[C@@H]2[C@@H](CO)O1)NCCc1ccccc1 | inactive
